Measurements from the antibiotic and cytotoxicity screens of Wong et al. (2023).
Some of the results follow.

What was measured:
HSkMC = human skeletal muscle cells; experiment: cytotoxicity call (relative viability < 0.9); conditions: 10 µM
HepG2 = experiment: cytotoxicity call (relative viability < 0.9); conditions: 10 µM
S. aureus RN4220 = experiment: growth inhibition call (relative growth <= 0.2); conditions: 50 µM

SMILES	cytotoxicity call (HSkMC)	cytotoxicity call (HepG2)	growth inhibition call (S. aureus RN4220)
CC(=O)NS(=O)(=O)c1ccc(N)cc1	inactive	inactive	inactive
Cc1noc(C)c1NC(=O)Nc1ccc2c(c1)C(=O)N([C@@H](C)CO)C[C@H](C)[C@@H](CN(C)S(=O)(=O)c1ccc(F)cc1)OCCCC[C@H](C)O2	inactive	inactive	inactive
C[C@@H]1CCCCO[C@H](CN(C)C(=O)Nc2ccc3c(c2)OCO3)[C@@H](C)CN([C@H](C)CO)C(=O)c2cc(NS(=O)(=O)c3cccs3)ccc2O1	inactive	inactive	inactive
C[C@@H]1CCCCO[C@H](CN(C)C(=O)C2CCCCC2)[C@@H](C)CN([C@H](C)CO)C(=O)c2cc(NS(=O)(=O)c3ccccc3)ccc2O1	inactive	inactive	inactive
C[C@H](CO)N1C[C@H](C)[C@H](CN(C)C(=O)Nc2cccc(C(F)(F)F)c2)OCc2cn(nn2)CCCC1=O	inactive	inactive	inactive
CC(C)NC(=O)N(C)C[C@@H]1Oc2ccc(NC(=O)Cn3cnnn3)cc2CC(=O)N([C@@H](C)CO)C[C@H]1C	inactive	inactive	inactive
NCC1(c2cccs2)CCCC1	inactive	inactive	inactive
Cc1ccc(S(=O)(=O)N2C[C@@H](O)COC[C@@H]3O[C@H](CC(=O)NCc4ccc(Cl)c(Cl)c4)CC[C@H]32)cc1	inactive	inactive	inactive
O=C(C[C@@H]1CC[C@@H]2[C@H](COC[C@@H](O)CN2C(=O)Nc2ccc(Cl)c(Cl)c2)O1)NCc1ccncc1	inactive	active	active
C[C@@H]1CN([C@@H](C)CO)C(=O)c2cc(NC(=O)Nc3ccc(C(F)(F)F)cc3)ccc2O[C@@H]1CN(C)C(=O)Nc1ccccc1	active	inactive	inactive
Cc1noc(C)c1S(=O)(=O)Nc1cccc2c1O[C@H](CN(C)Cc1ccc(Oc3ccccc3)cc1)[C@H](C)CN([C@@H](C)CO)C2=O	inactive	inactive	inactive
C[C@H](CO)N1C[C@H](C)[C@H](CN(C)C(=O)Nc2cccc3ccccc23)Oc2ncc(-c3cccc(C(F)(F)F)c3)cc2C1=O	inactive	inactive	inactive
C[C@@H]1CN([C@H](C)CO)C(=O)Cc2cc(NC(=O)CCN3CCOCC3)ccc2O[C@H]1CN(C)S(=O)(=O)c1ccc(F)cc1	inactive	inactive	inactive
